Reference: article PMC4336329 (PLoS ONE, 2015)
Screen size: about 310,000 compounds; about 2,200 (0.71%) showed an effect of 50% or more. The effect is printed as a negative number. Some of the results follow.

target: human ether-à-go-go-related gene (hERG) potassium channel (human, UniProt Q12809); assay: primary screen, population patch clamp on CHO cells stably expressing hERG
Sequence (Q12809 whole entry, looked up): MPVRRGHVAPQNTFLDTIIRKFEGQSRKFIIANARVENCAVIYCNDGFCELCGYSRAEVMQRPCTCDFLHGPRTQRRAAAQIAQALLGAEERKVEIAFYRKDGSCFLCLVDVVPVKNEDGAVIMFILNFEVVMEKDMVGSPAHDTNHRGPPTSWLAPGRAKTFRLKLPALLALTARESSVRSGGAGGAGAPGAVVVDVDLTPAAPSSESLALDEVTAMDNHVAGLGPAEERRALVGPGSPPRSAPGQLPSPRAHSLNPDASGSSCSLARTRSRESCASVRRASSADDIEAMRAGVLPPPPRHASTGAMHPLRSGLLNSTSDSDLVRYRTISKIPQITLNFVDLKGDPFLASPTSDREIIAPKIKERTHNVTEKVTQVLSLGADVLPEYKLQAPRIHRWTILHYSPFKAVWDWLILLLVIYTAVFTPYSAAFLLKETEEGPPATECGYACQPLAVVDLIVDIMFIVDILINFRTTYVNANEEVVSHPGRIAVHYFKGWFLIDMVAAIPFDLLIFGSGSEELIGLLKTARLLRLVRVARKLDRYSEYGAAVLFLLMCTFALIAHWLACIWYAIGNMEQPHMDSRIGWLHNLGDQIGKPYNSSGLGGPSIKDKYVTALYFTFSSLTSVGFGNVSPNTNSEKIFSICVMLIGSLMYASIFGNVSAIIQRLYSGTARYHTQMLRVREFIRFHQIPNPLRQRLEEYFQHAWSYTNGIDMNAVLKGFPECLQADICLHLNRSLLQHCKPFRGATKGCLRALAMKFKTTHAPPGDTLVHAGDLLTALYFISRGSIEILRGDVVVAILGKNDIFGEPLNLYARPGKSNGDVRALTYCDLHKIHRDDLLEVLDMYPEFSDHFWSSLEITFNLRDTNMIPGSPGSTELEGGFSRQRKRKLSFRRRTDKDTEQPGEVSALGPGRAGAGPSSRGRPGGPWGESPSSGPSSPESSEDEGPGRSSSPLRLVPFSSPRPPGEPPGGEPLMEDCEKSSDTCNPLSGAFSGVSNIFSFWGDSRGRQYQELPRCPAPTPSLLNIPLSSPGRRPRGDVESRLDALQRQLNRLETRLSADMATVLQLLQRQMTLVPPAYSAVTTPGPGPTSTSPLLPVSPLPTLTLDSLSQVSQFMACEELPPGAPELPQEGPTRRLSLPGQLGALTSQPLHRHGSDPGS

Row | Structure (SMILES) | hERG current change (%, negative = inhibition) at 1uM [%]
1 | Cn1c(=O)c2c(nc(CN3CCN(Cc4ccccc4)CC3)n2Cc2ccc(F)cc2)n(C)c1=O | -38.2
2 | COCCNc1nc(Cl)c(C#N)s1 | 12.9
3 | CCOC(=O)c1c(NC(=S)Nc2ccccc2)sc2c1CCN(CCc1ccccc1)C2 | 2.54
4 | O=C(Nc1ccc(S(=O)(=O)N2CCCC2)cc1)C1CC(=O)N(CCc2ccc(F)cc2)C1 (centres unmarked) | 2.13
5 | CCOc1cccc(-c2c(C(=O)N/N=C/c3sccc3C)nnn2-c2nonc2N)c1 | 8.98
6 | CCCOc1ccc(-c2c(=O)n(OCc3ccc([N+](=O)[O-])cc3)c3ccccc3[n+]2[O-])cc1 | 3.08
7 | Cc1cccc(C(=O)NNC(=O)c2ccc(F)cc2)c1 | 12
8 | CC1CCCCN1c1ncnc(N)c1[N+](=O)[O-] (centres unmarked) | 7.54
9 | CCOC(=O)N1CCC(n2c(=S)[nH]c3ccccc3c2=O)CC1 | 5.07
10 | CCn1c(CCC(=O)Nc2nc3c(s2)CCCC3)nc2cc(S(=O)(=O)N(C)C)ccc21 | 2.22
11 | COc1ccc(S(=O)(=O)Nc2ccc(Cl)cn2)cc1 | 0.261
12 | CCCNc1ccc(S(=O)(=O)N(CC)CC)cn1 | 8.83
13 | CCN(c1ccc(C(O)(C(=O)OC)C(F)(F)F)cc1)S(=O)(=O)c1ccccc1 (centres unmarked) | 7.08
14 | O=C1CC(SCCc2nc3ccccc3[nH]2)C(=O)N1c1ccc(F)c(Cl)c1 (centres unmarked) | -4.92
15 | CCOC(=O)c1cnc(SCC(C)C)nc1N | -2.08
16 | COc1ccc(Cl)cc1C(=O)NCc1cn(C)nc1C | 15.6
17 | CCCn1c(CNC(=O)c2cccs2)nc2ccccc21 | 1.95
18 | CC(C)c1ccc(NC(=O)[C@@H]2CCC(=O)N2C2OC(=O)c3ccccc32)cc1 (some centres unmarked) | 5.85
19 | Br.O=C(Nc1ccc(F)cc1)C1=CC(=O)N2CCN=C2S1 | 13.7

Row | Structure (SMILES) | hERG current change (%, negative = inhibition) at 1uM [%]
20 | CCOC(=O)c1ccccc1NC(=O)CN(c1ccccc1OCC)S(C)(=O)=O | -0.936
21 | CCOC(=O)N1CCN(C(=O)c2nn(-c3cc(OC)cc(OC)c3)c(=O)c3ccccc23)CC1 | 14.6
22 | O=C1C2(c3ccccc3)CN(CCO)CC1(c1ccccc1)CN(CCO)C2 | 6.6
23 | CC(=O)c1ccc(N2CCN(C(=O)Cn3c(=S)[nH]c4ncccc4c3=O)CC2)cc1 | 12
24 | Cc1cccc(C)c1NC(=O)c1cccc(C(=O)Nc2c(C)cccc2C)n1 | 8.97
25 | COc1ccc(-c2nnc(NC(=O)CS(=O)(=O)c3ccc(F)cc3)o2)cc1 | 4.66
26 | O=C1CCCc2c1cc(C(=O)NCc1ccco1)c(=O)n2-c1ccccc1 | 3.55
27 | CC(C)C(C(=O)Nc1ccc2c(c1)OCCO2)N1C(=O)c2ccccc2C1=O (centres unmarked) | 10.1
28 | Cc1c(N2C(=O)CS/C2=N\N=C\c2ccccc2O)c(=O)n(-c2ccccc2)n1C | 1.29
29 | CCOC(=O)NC(=O)CSc1ccccn1 | 12.4
30 | COCc1nnc(NC(=O)c2sc3ccccc3c2Cl)s1 | 2.19
31 | COc1ccc(OCC(=O)Nc2c(C)ccc3nsnc23)cc1 | 2.93
32 | O=C(Cn1cc(C(F)(F)F)ccc1=O)NCCc1ccc(Cl)cc1Cl | 2.22
33 | Cc1cc(NC(=O)c2ccc(Cl)cc2)n(-c2ccccc2)n1 | 13.6
34 | O=C(O)c1cccc(-n2c(/C=C/c3ccccc3)nc3ccccc3c2=O)c1 | 5.76
35 | COc1cc(OC)cc(-c2oc3cccnc3c2C#CCCO)c1 | 9.75
36 | O=S(=O)(O)c1cccc(N=Nc2c(O)ccc3ccccc23)c1 | 10
37 | COc1ccc(S(=O)(=O)Nc2cc3c4c(c2)C(C)C(=O)N4CCC3)cc1OC (centres unmarked) | 8.91
38 | COc1ccc(NC(=O)CSc2nnc3n2CCCCC3)cc1 | 13.5

Row | Structure (SMILES) | hERG current change (%, negative = inhibition) at 1uM [%]
39 | Oc1ccccc1C=NCCCCCCN=Cc1ccccc1O | 12.3
40 | Cc1cc(/C=C2/C(=O)NN(c3ccccc3)C2=O)c(C)n1-c1ccc(O)cc1 | 19.6
41 | CCCCNC(=O)C1CC(=O)N(C2CCCCC2)C1 (centres unmarked) | 4.45
42 | COc1ccccc1-c1cc(-c2ccc(O)cc2)nc(N)c1C#N | 13.4
43 | O=c1cc(C(O)C[N+](=O)[O-])occ1OCc1ccccc1 (centres unmarked) | 2.6
44 | CCN(Cc1cn2cccnc2n1)C1CCCCC1 | 4.26
45 | Cn1c(CCCOc2ccc(Cl)cc2Cl)n[nH]c1=S | 15.7
46 | Cc1ccc(-n2c(N)c(-c3nc4ccccc4n3C)sc2=S)cc1 | 6.94
47 | COc1ccc(CNC(=O)OCc2nccnc2C(=O)Nc2ccc(Br)cn2)cc1 | -0.281
48 | O=C(Nc1ccnn1C1CCN(Cc2ccccc2OC(F)F)CC1)c1cccnc1 | 2.05
49 | Cc1nn(C(=O)c2cc([N+](=O)[O-])ccc2Cl)c(C)c1Br | 14.5
50 | CC(C)CCNC(=O)C1C2C=CC3(CN(Cc4ccccc4Cl)C(=O)C13)O2 (centres unmarked) | 8.09
51 | Cc1ccc(NCc2n[nH]c(=S)n2-c2cccc(Cl)c2)cc1 | 14.4
52 | CN1C2C=C3C(C#N)=C(N)C(C#N)(C#N)[C@@H](c4cccc(F)c4)[C@@H]3C1CC2 (some centres unmarked) | 15.1
53 | COc1ccccc1N1CCN(CCN(C(=O)C2CCCCC2)c2ccccn2)CC1.O=C(O)/C=C\C(=O)O | 4.2
54 | Cc1ccnc(NC(=O)c2ccc([N+](=O)[O-])o2)c1 | 13.4
55 | COc1ccc(O)c(/C=N/NC(=O)c2ccc(CSc3nc(C)cc(C)n3)cc2)c1 | 14.4
56 | O=C(OCC(=O)N(Cc1ccccc1)Cc1ccccc1)c1ccccc1NCCO | 0.0935
